Measured values from ChEMBL document CHEMBL4888484, “Replenishing the malaria drug discovery pipeline: Screening and hit evaluation of the MMV Hit Generation Library 1 (HGL1) against asexual blood stage Plasmodium falciparum ,using a nano luciferase reporter read-out” (2022).
About 540 (0.36%) of roughly 150,000 compounds showed an effect of 50% or more. The list shows a part of the results.

Each compound was assayed on Plasmodium falciparum (assay: Primary screen in NF54 nanoGlo assay, in single point, at 2uM, 72h; a lower Z score goes with more inhibition). Settings: timepoint 72 hour.
Type: functional, Erythrocyte

SMILES | % Inhibition [%] | Z score
Cc1nc(CNC[C@H](C)c2c(C)noc2C)sc1C | 6 | -0.63
CC(CN1CCN(C)CC1)NC(=O)NC1CC1C (configuration not stated) | 1 | -0.14
COc1ccc(C(C)NC(C)c2nnnn2C)cc1 (configuration not stated) | -3 | 0.3
CON(C)C(=O)CCN1CCCN(Cc2ccccc2)CCOCC1 | -3 | 0.51
COc1ccc(-c2ncc(F)c(N(C)C)n2)cc1C | 1 | -0.19
CN(C)c1ccccc1NC(=O)c1ccco1 | -11 | 1.56
CC[C@@H]1NC(=O)N(Cc2cccnc2C(F)(F)F)C1=O | -15 | 2.28
Cc1c(F)ccc(Cl)c1NC(=O)[C@H]1OCC[C@H]1C | -23 | 2.37
O=C1CCC(Cn2cc(Cl)c(=O)[nH]c2=O)CC1 | 0 | 0.05
CCN(Cc1ccc(OC(F)F)cc1)C[C@H]1CCCCO1 | -14 | 1.76
COC(=O)c1ccccc1NC(=O)CCc1nc(CS(=O)(=O)c2ccc(C)cc2)no1 | -2 | 0.3
CC(C)C(=O)N1CCCN(c2nc(CN3CCN(c4ccccc4F)CC3)cc(=O)[nH]2)CC1 | 1 | -0.19
Cc1cccc(NC(=O)N2CC3C=CC2C3)c1 (configuration not stated) | -5 | 0.62
Cc1occc1C(=O)NCc1nnc2n1CCC2 | -3 | 0.3
COc1ccc(C(=O)N/C(=C\c2cn(S(=O)(=O)N(C)C)c3ccccc23)C(=O)NCCN2CCOCC2)cc1OC | 4 | -0.7
Cc1nc(CC(N)=NOCc2cc(Cl)c3c(c2)OCCO3)cs1 | 15 | -1.51
COc1ncc(-c2c(C)c(-c3cnn(C)c3)nc(N)c2C#N)cn1 | -2 | 0.24
O=C(Cc1cn2c(n1)CCCC2)N[C@H]1CCCc2cnccc21 | -12 | 1.23
CN(C)c1cccc(COC(=O)COc2ccccc2F)c1 | 10 | -1.4

SMILES | % Inhibition [%] | Z score
CN(C)S(=O)(=O)N(CCN1CCCC1)[C@H]1CCN(C(=O)c2cccs2)C1 | 2 | -0.34
Fc1ccc2[nH]c(COCc3nc([C@H]4CCOC4)no3)nc2c1 | 1 | -0.24
CCCC[C@H](C)C(=O)Nc1nc(C(C)C)nn1C | -17 | 1.69
Cc1cccc(OCC(=O)Nc2cc(F)c3nc(N4CCOCC4)ccc3c2)c1 | -8 | 1.08
Nc1nc(NC2CC2)cc(-c2ccncc2)n1 | -2 | 0.32
CCOC(=O)c1nnsc1NC(=O)[C@H](C#N)C(=O)OCC | 0 | -0.03
CC(C)(C(=O)N1CCc2cnccc21)c1cccs1 | -9 | 0.82
CCCC[C@H]1CN(c2cccc(-c3ccccc3)c2)C(=O)CN1C(=O)CO | 2 | -0.24
COc1ccccc1[C@H](CC(C)C)NC(=O)N(C)Cc1nnc[nH]1 | 5 | -0.93
Cn1cc(CC(=O)NCC2(N3CCOC(C)(C)C3)CCCCC2)cn1 | -6 | 0.92
c1ccc(Cn2c(Cc3cccc4ccccc34)nc3ccccc32)cc1 | 26 | -3.35
Cc1cc(C)n(-c2ccc([C@H](C)NC(=O)c3nc(=O)[nH][nH]3)cc2)n1 | 1 | -0.09
CCc1ccc(C(=O)NC(C)(C)c2cn([C@H]3CN[C@H](C(=O)NC)C3)nn2)cc1 | -26 | 2.51
O=C(C1CCc2ccccc2C1)N1CCC(C(=O)O)(C(F)(F)F)C1 (configuration not stated) | 1 | -0.09
Fc1ccc(OCc2nc([C@H]3CCOC3)no2)c(F)c1 | -2 | 0.23
COCc1cccc(C(=O)N2C[C@]3(C)C[C@H]2CC(C)(C)C3)n1 | -15 | 1.57
Cc1cc(-n2cnnn2)cc(C)c1S(=O)(=O)N1CCc2ccccc21 | -2 | 0.28
O=C(NCc1nc(C2CC2)no1)N1CCC[C@H](CN2CCOCC2)C1 | 4 | -0.42
C[C@@H]1CCC[C@H](C)N1CC(=O)NCCc1cnn[nH]1 | -5 | 0.7

SMILES | % Inhibition [%] | Z score
O=C(NCC1([C@H](O)c2ccccc2)CC1)c1cc(O)ccc1C(F)(F)F | -10 | 1.61
NC(=O)c1cncc(N[C@@H]2COCC[C@@H]2Oc2ccc(F)cc2)n1 | -2 | 0.31
Cc1ccc(NC[C@H]2CCN(CCn3cccn3)C2)nc1 | 6 | -1.02
COC(C)(C)C[C@H](C)NCc1cccnc1N | -6 | 1.23
Cc1ccc(NC(=O)c2cn(-c3cc(-c4nc(C5CC5)no4)ccn3)cn2)cc1C | -9 | 1.22
O=C(CN1C(=O)COc2ccc(Cl)cc21)Nc1nncs1 | -10 | 1.12
Cc1nnc(CN(C)CCn2ccnc2C)s1 | -2 | 0.32
Cc1cccc(C2CC(C(=O)Nc3ccccc3)CN(Cc3cccc(F)c3)C2)c1 (configuration not stated) | -2 | 0.27
Cc1ccc(-n2cnnc2)c(C(=O)N2CC[C@H]2C2CC2)c1 | -10 | 1.5
CC(C)CS(=O)(=O)C1CN(C(=O)c2nc3ccccc3s2)C1 | -9 | 1.52
CC(=O)N1CCC(c2ncnn2-c2ccc(C(F)(F)F)cc2)CC1 | -7 | 0.91
CC(C)C[C@H]1CCN(C(=O)c2cc3ncccn3n2)C1 | -14 | 2.16
CCc1ncc(NC(=O)N(CCO)C2CCCCC2)cn1 | -6 | 0.84
N#Cc1ncn(Cc2nc3ccccc3c(=O)[nH]2)n1 | -8 | 1.49
C[C@H]1CNC(=O)N1c1cccc(NC(=O)c2scnc2C2CC2)c1 | -13 | 2.01
COc1ccc(CNC(=O)c2nn(-c3ccccc3)c3ccccc3c2=O)cc1 | -14 | 1.89
COC1(C)CC(Nc2nn3cc(C)nc3s2)C1(C)C (configuration not stated) | -10 | 1.37
CC(C)c1nc(CC(=O)Nc2cccnc2)cs1 | 6 | -0.65
